{"source": "paper PMC12040169", "about": "(PLOS Biology, 2025)", "note": "The list shows a part of the results.", "data": [{"test_system": "T1, C. trachomatis L2/434/Bu expressing GFP (CTL2-GFP)", "T1 construct": "L2/434/Bu GFP intracellular growth in HeLa cells", "parameters": "species or system HeLa; C. trachomatis total inclusion area by high-content imaging, normalised to DMSO", "details": "total inclusion area; 28.5 h, 10 µM; inhibitor", "in_short": "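Following bulk GFP and resorufin fluorescence reads, infected cells were fixed, Hoechst-stained and imaged on a high-content platform. Inclusion total area and number per well served as growth proxies; nuclei counts indicated host viability. MICs were derived as for the fluorescence assay.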", "values": [{"smiles": "O=C(CSCc1ccc(Br)cc1)Nc1cccnc1", "note": "[CBK268543]", "% of control remaining": 93.7072}, {"smiles": "CN(C)CC1CCCCN1C(=O)C1CC2C=CC1C21CC1", "note": "(centres unmarked) [CBK282085]", "% of control remaining": 109.721}, {"smiles": "COc1ccccc1-c1cnn2c(NCC3CCCO3)cc(C)nc12", "note": "(centres unmarked) [CBK304529]", "% of control remaining": 114.756}, {"smiles": "Cc1cc(C)n(CC(O)CN(Cc2ccccc2)Cc2ccco2)n1", "note": "(centres unmarked) [CBK282957]", "% of control remaining": 95.0579}, {"smiles": "CC(C)(C)c1cc(CCC(c2cc(C(C)(C)C)c(O)c(C(C)(C)C)c2)c2cc(C(C)(C)C)c(O)c(C(C)(C)C)c2)cc(C(C)(C)C)c1O", "note": "[CBK261271]", "% of control remaining": 86.6999}, {"smiles": "CC(=O)c1ccc(S(=O)(=O)Nc2ccc(C)cc2)cc1", "note": "[CBK045380]", "% of control remaining": 97.155}, {"smiles": "O=C(c1cccnc1)C1CCN(C(=O)c2cccs2)CC1", "note": "[CBK283528]", "% of control remaining": 62.8614}, {"smiles": "Cc1noc2nc(-c3ccco3)cc(C(=O)N(C)CCOc3ccccc3)c12", "note": "[CBK295623]", "% of control remaining": 75.602}, {"smiles": "CC(=O)Nc1cccc(-c2cnc(N)c(NC3CCOCC3)n2)c1", "note": "[CBK063845]", "% of control remaining": 88.3089}, {"smiles": "O=C(O)CCC(=O)Nc1cccc2ccccc12", "note": "[CBK260889]", "% of control remaining": 94.2141}, {"smiles": "CC(C)(C)OC(=O)N1CCCC(C(=O)NCc2ccco2)C1", "note": "(centres unmarked) [CBK305102]", "% of control remaining": 36.513}, {"smiles": "O=C(CSc1nnc2sc3ccccc3n12)N1c2ccccc2Sc2ccccc21", "note": "[CBK265457]", "% of control remaining": 61.3792}, {"smiles": "O=C(O)c1ccc(NS(=O)(=O)c2cc(Br)c(Cl)s2)cc1", "note": "[CBK034049]", "% of control remaining": 85.6884}, {"smiles": "Cn1c(SCc2ccc([N+](=O)[O-])cc2)nnc1C(O)c1ccccc1", "note": "(centres unmarked) [CBK269735]", "% of control remaining": 80.6966}, {"smiles": "COc1cccc([C@H]2CN(C(=O)c3ccccc3)[C@@H]3CCN(Cc4ccccc4C)C[C@H]23)c1", "note": "[CBK285610]", "% of control remaining": 90.6344}, {"smiles": "CC(C)c1ccc(NS(=O)(=O)c2cc3c(N4CCNCC4)nccc3s2)cc1", "note": "[CBK038104C]", "% of control remaining": 68.8491}, {"smiles": "CCOC(=O)c1cn(CC)c2cc(N3CCCC3)c(F)cc2c1=O", "note": "[CBK307169]", "% of control remaining": 114.589}, {"smiles": "Cn1cc(CN2CCC(C(=O)NC(c3ccc4c(c3)OCO4)c3ccccn3)CC2)c2ccccc21", "note": "(centres unmarked) [CBK148183]", "% of control remaining": 107.699}, {"smiles": "O=C1NC2(CCN(C(=O)CC3c4ccccc4Oc4ccccc43)CC2)Nc2ccccc21", "note": "[CBK286307]", "% of control remaining": 92.7183}, {"smiles": "COc1cc2c(cc1CNC1CCCc3c1cnn3C)OC(C)C2", "note": "(centres unmarked) [CBK304296C]", "% of control remaining": 53.0142}, {"smiles": "Cc1nn(-c2ccc(F)cc2)c2c1C(c1ccc(C(=O)O)cc1)CC(=O)N2", "note": "(centres unmarked) [CBK286561]", "% of control remaining": 82.6317}, {"smiles": "O=C(O)C[C@@H]1CCN(C(=O)NCc2ccccc2)C[C@@H]1CC1=NCCc2ccccc21", "note": "[CBK289161]", "% of control remaining": 110.929}, {"smiles": "Cc1cc(NS(=O)(=O)c2cc(C(=O)O)c(Cl)cc2F)n(C)n1", "note": "[CBK067260]", "% of control remaining": 102.138}, {"smiles": "CCCn1ncc(CN[C@@H]2CCC[C@H]2Cc2cc(C)no2)c1C", "note": "[CBK282948]", "% of control remaining": 95.3563}, {"smiles": "COc1ccc2c(c1)cc(C(=O)N(C)CCCn1nc(C)cc1C)n2C", "note": "[CBK307196]", "% of control remaining": 90.552}, {"smiles": "O=C(NCCOCc1ccc(Cl)cc1)c1cc(-n2cnnc2)ccc1Cl", "note": "[CBK267939]", "% of control remaining": 102.886}, {"smiles": "N#Cc1ccccc1NC(=O)CSc1nc2cc(Cl)ccc2[nH]1", "note": "[CBK270019]", "% of control remaining": 70.5123}, {"smiles": "O=C(CSc1ncccc1C(=O)O)Nc1nnc(Cc2ccccc2)s1", "note": "[CBK299835]", "% of control remaining": 79.1802}, {"smiles": "Cc1cccc(C(=O)Nc2ccc(-c3nnc(-c4ccc(NC(=O)c5cccc(C)c5)cc4)o3)cc2)c1", "note": "[CBK261603]", "% of control remaining": 94.4445}, {"smiles": "COCCNc1nc(-c2cc(C(C)C)ccc2OC)ccc1C(=O)Nc1cccc(OC)c1", "note": "[CBK105904]", "% of control remaining": 86.3056}, {"smiles": "O=C(Cn1ncc2cccn2c1=O)OC1CCCCC1", "note": "[CBK283667]", "% of control remaining": 90.6224}, {"smiles": "COc1ccc(-c2noc(CNC(=O)Nc3ccccc3)n2)cc1OC", "note": "[CBK269900]", "% of control remaining": 126.771}, {"smiles": "O=C(O)c1ccc(N2C(=O)C(=Cc3c4ccccc4cc4ccccc34)SC2=S)cc1", "note": "[CBK296101]", "% of control remaining": 78.0411}, {"smiles": "CCn1cc(CN(CCCN(C)C)Cc2ccc(C)o2)c(C)n1", "note": "[CBK283201]", "% of control remaining": 93.1196}, {"smiles": "CN(CC(=O)NCc1ccc(Cl)cc1)S(=O)(=O)Cc1ccc(C#N)cc1", "note": "[CBK305899]", "% of control remaining": 78.6045}, {"smiles": "O=S(=O)(c1cccs1)N1CCC2(CC1)OCCO2", "note": "[CBK057295]", "% of control remaining": 87.4203}, {"smiles": "Cn1nccc1C(=O)NC(Cc1ccsc1)c1nccs1", "note": "(centres unmarked) [CBK285138]", "% of control remaining": 77.7407}, {"smiles": "COc1ccc(C2CC(=O)C3=C(C2)NC(C)=C(C#N)C3c2cccc(F)c2)cc1", "note": "(centres unmarked) [CBK293922]", "% of control remaining": 117.367}, {"smiles": "CC(Cn1cccn1)C(=O)Nc1cccc(N2CCCC2)c1", "note": "(centres unmarked) [CBK283249]", "% of control remaining": 116.263}, {"smiles": "O=C(COc1nc2cc3c(nc2o1)CCC3)c1ccccc1", "note": "[CBK269407]", "% of control remaining": 89.1206}, {"smiles": "CN(C)Cc1c(O)ccc2occ(C(=O)c3cccs3)c12", "note": "[CBK261959C]", "% of control remaining": 98.2899}, {"smiles": "Cc1ccc(S(=O)(=O)c2cccc(S(=O)(=O)N3CCOCC3)c2)cc1S(=O)(=O)N1CCOCC1", "note": "[CBK262117]", "% of control remaining": 83.1032}, {"smiles": "CCOc1cc(OCC)cc(C(=O)N2CCC3(CC2)NC(=O)c2cc(I)ccc2O3)c1", "note": "[CBK166301]", "% of control remaining": 43.1761}, {"smiles": "Cc1ncsc1CCOc1nccnc1NC(C)C", "note": "[CBK115728]", "% of control remaining": 102.44}, {"smiles": "O=C(O)c1ccc(/C=C/C(=O)c2ccc3c(c2)OCCO3)cc1", "note": "[CBK262173]", "% of control remaining": 85.7377}, {"smiles": "CN(CCN1CCCCC1)C(=O)C1(c2ccc(F)cc2)CC1", "note": "[CBK282178]", "% of control remaining": 77.134}, {"smiles": "CC(C)(C)OC(=O)N1CCN(C(=O)c2cc(-c3cccnc3)on2)CC1", "note": "[CBK305648]", "% of control remaining": 83.0151}, {"smiles": "O=C(CN1CCCC1)N1CCCC1c1nc2ccccc2[nH]1", "note": "(centres unmarked) [CBK284003]", "% of control remaining": 95.7713}, {"smiles": "Clc1ccc(OCCOc2cncc(N3CCCC3)n2)cc1", "note": "[CBK115668]", "% of control remaining": 98.4768}, {"smiles": "CCN1CCN(c2ccc(NC(=S)NC(=O)c3ccccc3Br)cc2)CC1", "note": "[CBK268583]", "% of control remaining": 60.6182}]}]}
